Results: PubChem BioAssay AID1508642 (National Center for Advancing Translational Sciences (NCATS), 2021)
Screen size: about 43,000 compounds; about 200 (0.47%) were called active. Not shown: some 12% with an inconclusive outcome. Calls come from the whole dose curve; as a rule, active = well fitted cell-killing curve with a large enough effect; inconclusive = small, poorly fitted or top-dose-only effect, or effect the other way; inactive = flat fitted curve, though single readings scatter. This is one part of the list.

Assay: Cell viability qHTS assay in S16 Pmp22-F2sN cells; note: nearly all actives have a fitted effect of over 65% in size
Conditions: S16 Pmp22-F2sN Schwann cells viability, CellTiter-Glo, 24 h; series mostly up to 57.5 µM; activity change, negative = cytotoxicity: at the top concentration
Summary of the method: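 S16 Pmp22-F2sN Schwann cells (500-1,000/well) in phenol-red-free DMEM with 10% FBS received 23 nL compound by pin tool for 24 h at 37 °C. Viability was then read as CellTiter-Glo luminescence after 15 min at room temperature.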
% is set by controls: 0 for no effect and ±100 for the full control effect; potency is the fitted concentration of half-maximal effect.

Row | SMILES | activity change, negative = cytotoxicity | Potency
1 | CCN1CCN(C(=O)Cn2ncc3c4ccccc4n(Cc4ccccc4F)c3c2=O)CC1 | inactive: -2.35% | –
2 | Cc1cccc(N2CCN(C(c3ccc(F)cc3)c3nnc(-c4ccccc4)o3)CC2)c1C (stereo unspecified) | inactive: -1.05% | –
3 | COc1cccc(N2CCN(C(=O)c3cnc4c(C)cccn4c3=O)CC2)c1 | inactive: -10.9% | –
4 | CCCNC(=O)CCn1nc(-c2ccc(C)cc2)c2ccccc2c1=O | inactive: -17.6% | –
5 | COc1ccc(-c2nc(SCC(=O)NCC3CCCO3)c(-c3ccc(Cl)cc3)[nH]2)cc1 (stereo unspecified) | inactive: -1.91% | –
6 | Cc1c(Cl)ccc2sc(NC(=O)c3ccc(S(=O)(=O)N4CCCC4)cc3)nc12 | inactive: 8.25% | –
7 | Cc1ccc2ncc(C(=O)Nc3cccc(C(F)(F)F)c3)c(=O)n2c1 | inactive: 4.6% | –
8 | COc1ccc(S(=O)(=O)N2CCC(c3nnc(-c4ccccc4C)o3)CC2)c(OC)c1 | inactive: 4.68% | –
9 | COc1cc(C(=O)Nc2cccc(OCc3cc(=O)n4c(C)csc4n3)c2)cc(OC)c1OC | inactive: 17.7% | –
10 | Cc1nn2c(=O)cc(COC(=O)c3ccccc3NC(=O)C(C)C)nc2s1 | inactive: 19.2% | –
11 | COc1cccc(-n2cc(C(=O)Oc3ccc(F)cc3)c3ccccc3c2=O)c1 | inactive: 5.78% | –
12 | Cc1ccc(S(=O)(=O)c2c(Nc3ccccc3)sc(C(=O)c3ccc4c(c3)OCO4)c2N)cc1 | inactive: 1.97% | –
13 | CCN(C(=O)c1cc(S(=O)(=O)N2CCOCC2)cn1C)c1ccc(OC)cc1 | inactive: -0.301% | –
14 | Cc1ccc(CN2C(=O)c3ccccc3S(=O)(=O)c3ccc(C(=O)OCC4CCCO4)cc32)cc1 (stereo unspecified) | inactive: 22.1% | –
15 | CCCC(=O)Oc1c(Sc2ccc(Cl)cc2)c(C)nn1-c1ccccc1 | inactive: -17% | –
16 | CCOc1nc(NC(=O)NS(=O)(=O)Oc2ccc(Cl)cc2)nc(-c2ccccc2)n1 | inactive: -1.78% | –
17 | Cn1c(SCC(=O)Nc2ccc(F)cc2)nc2c([nH]c3ccccc32)c1=O | inactive: -10.3% | –
18 | CN(C)C(=O)c1ccc2c(c1)N(CC(=O)NCc1ccc(F)cc1)C(=O)C1CCCCN21 (stereo unspecified) | inactive: 7.35% | –
19 | COc1cccc(-c2cc(C(=O)NCc3ccccc3)[nH]n2)c1 | inactive: -9.79% | –
20 | COc1cc(OC)cc(-c2nnc(SCC(=O)N3CCC(C)CC3)o2)c1 | inactive: 5.41% | –
21 | COc1ccc(CCNC(=O)CCn2c(=O)c3ccccc3n(CC(=O)Nc3cccc(C)c3)c2=O)cc1OC | inactive: 7.63% | –

Row | SMILES | activity change, negative = cytotoxicity | Potency
22 | CC(=O)c1ccc(NC(=O)Cn2c(-n3nc(C)cc3C)nc(C)cc2=O)cc1 | inactive: -4.16% | –
23 | Cc1ccc2c(c1)cc1c(=O)n(CC(=O)NCc3ccco3)nc(C)n12 | inactive: 4.66% | –
24 | Cc1cccn2c(=O)c3cc(C(=O)NCCc4ccc(S(N)(=O)=O)cc4)n(C)c3nc12 | inactive: 13.5% | –
25 | COc1ccc(OC)c(C2C(C(N)=O)=C(C)Nc3nc(-c4cccc(Cl)c4)nn32)c1 (stereo unspecified) | inactive: -19.8% | –
26 | CC(C)(C)c1ccc(OCC(=O)N(Cc2ccco2)Cc2ccccc2F)cc1 | inactive: -17.1% | –
27 | CCc1ccccc1N1CC(c2nc3ccccc3n2CC(C)C)CC1=O (stereo unspecified) | inactive: 22.7% | –
28 | Cc1ccc(C)c(S(=O)(=O)c2nnn3c2nc(N2CCCC2)c2sccc23)c1 | inactive: -10.6% | –
29 | O=C(Cn1ncc2c3ccccc3n(Cc3ccc(Cl)cc3)c2c1=O)NCCCc1ccccc1 | inactive: -2.96% | –
30 | CC(C)c1ccc(Nc2cc(C(=O)NCCc3ccccc3)c3ccccc3n2)cc1 | inactive: -3.44% | –
31 | CC(=O)Nc1ccc(-n2cc3c(c2-c2ccc(C)cc2)c(=O)n(C)c(=O)n3C)cc1 | inactive: -19.8% | –
32 | Cc1oc(-c2ccc(C(=O)Nc3ccc(F)cc3F)cc2)nc1COc1ccccc1 | inactive: 2.77% | –
33 | CCCCN(CC)CCCn1cnc2c([nH]c3ccc(Cl)cc32)c1=O | inactive: -21.1% | –
34 | CCC(=O)Nc1ccccc1-c1nc2ccccc2n(C(CC)C(=O)Nc2cccc(C(C)=O)c2)c1=O (stereo unspecified) | inactive: -4.56% | –
35 | CCOc1ccc(CCNC(=O)CCc2cn(Cc3ccc(C)cc3)c3ccccc23)cc1 | inactive: 1.17% | –
36 | CCCCNC(=O)CCn1c(=O)c2ccccc2n(Cc2cc(C)ccc2C)c1=O | inactive: 16.4% | –
37 | COc1cccc(C2=NN(C(C)=O)C(c3cn(-c4ccccc4)nc3-c3cccs3)C2)c1 (stereo unspecified) | inactive: 1.48% | –
38 | CC(C)CCNC(=O)N1CCN(S(=O)(=O)c2ccc3c(ccn3C)c2)CC1 | inactive: 1.42% | –
39 | CCOC(=O)c1c(S(=O)(=O)N2CCCC(C(=O)Nc3cc(C)ccc3OC)C2)c(C)n(C)c1C (stereo unspecified) | inactive: -3.95% | –
40 | COc1ccc2[nH]cc(CCNC(=O)Nc3ccc(F)cc3)c2c1 | inactive: -16.3% | –
41 | CCCC(=O)Nc1nnc(SCc2cc(=O)c3cc(C)ccc3[nH]2)s1 | inactive: -24% | –
42 | CC(C)S(=O)(=O)c1oc(-c2ccc(F)cc2)nc1S(=O)(=O)c1ccc(F)cc1 | – | active: 3.16 µM

Row | SMILES | activity change, negative = cytotoxicity | Potency
43 | Cc1cccc(OCC(=O)N(Cc2cccc(Cl)c2)Cc2ccco2)c1C | inactive: -8.41% | –
44 | COc1ccc2cc(-c3cn4c(n3)sc3cc(F)ccc34)c(=O)oc2c1 | inactive: 2.61% | –
45 | COc1cccc(C(=O)NCC(c2ccc(N(C)C)cc2)N2CCOCC2)c1OC (stereo unspecified) | inactive: -2.88% | –
46 | CCN(CC)C(=O)CSc1nnc2[nH]c(=O)cc(C)n12 | inactive: 7.54% | –
47 | CCOC(=O)N1CCc2c(sc(NCc3cccs3)c2C(=O)Nc2cc(OC)ccc2OC)C1 | inactive: 2.62% | –
48 | CC(C)c1ccc(Nc2cc(C(=O)NCc3cccs3)c3ccccc3n2)cc1 | inactive: 14.1% | –
49 | CCOC(=O)c1nnn(C(CC)C(=O)Nc2c(C)cccc2C)c1C(=O)OCC (stereo unspecified) | inactive: -2.16% | –
50 | CCNc1nc(Oc2ccc(OCC(=O)OC)nn2)nc(N2CCOCC2)n1 | inactive: 13.2% | –
51 | CCOc1ccc(-c2cccc(NS(=O)(=O)c3ccc(Cl)s3)c2)nn1 | inactive: 6.86% | –
52 | CCOc1ccc2nc(N3CCCC(C(=O)NCc4ccc(OC)cc4)C3)sc2c1 (stereo unspecified) | inactive: 1.67% | –
53 | Cc1ccc(NC(=O)N2CCN(c3nnc(C)c4c(C)n(-c5ccccc5)nc34)CC2)c(Cl)c1 | inactive: 6.76% | –
54 | COc1ccc(CNC(=O)c2ccc(Sc3ccc(Cl)cc3)c(NC(C)=O)c2)c(OC)c1 | inactive: -14.8% | –
55 | Cc1ccc2c(c1)c1c(c(=O)n(-c3cccc(Cl)c3)c(=O)n1C)n2C | inactive: 6.7% | –
56 | COc1cc(OC)c(NC(=O)c2cnc(N3CCCC3)nc2C)cc1Cl | inactive: 9.01% | –
57 | CCSc1ncc(Cl)c(C(=O)Nc2sc(C(C)=O)c(C)c2C(=O)OC)n1 | inactive: -0.152% | –
58 | CCOC(=O)c1c(NC(=O)c2cc3nc(-c4ccc(OC)cc4)cc(C(F)(F)F)n3n2)sc(C)c1C | inactive: -2.99% | –
59 | CCc1cccc(NC(=O)c2c(C)oc3ncnc(N4CCCCC4)c23)c1 | inactive: -0.583% | –
60 | O=C1CN(C(=O)COc2ccc(Cl)cc2Cl)C(c2ccc(F)cc2)c2cc(F)ccc2N1 (stereo unspecified) | inactive: -18.2% | –
61 | COc1ccc(C(=O)c2oc3ccccc3c2NC(=O)c2nc(SC)ncc2Cl)cc1Cl | inactive: 1.22% | –
